# Measurements as given in paper PMC4336329 (PLoS ONE, 2015).
# Out of some 310,000 compounds screened, about 14,000 (4.5%) showed an effect of 50% or more. Effects have a minus sign here. The list shows a part of the results.
# Target: human ether-à-go-go-related gene (hERG) potassium channel (human, UniProt Q12809)
# Assay: primary screen, population patch clamp on CHO cells stably expressing hERG
# 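Also: peak tail current of the secondary pulse compared with the same well before compound.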
# Chain of human ether-à-go-go-related gene (hERG) potassium channel (Q12809 whole entry, looked up): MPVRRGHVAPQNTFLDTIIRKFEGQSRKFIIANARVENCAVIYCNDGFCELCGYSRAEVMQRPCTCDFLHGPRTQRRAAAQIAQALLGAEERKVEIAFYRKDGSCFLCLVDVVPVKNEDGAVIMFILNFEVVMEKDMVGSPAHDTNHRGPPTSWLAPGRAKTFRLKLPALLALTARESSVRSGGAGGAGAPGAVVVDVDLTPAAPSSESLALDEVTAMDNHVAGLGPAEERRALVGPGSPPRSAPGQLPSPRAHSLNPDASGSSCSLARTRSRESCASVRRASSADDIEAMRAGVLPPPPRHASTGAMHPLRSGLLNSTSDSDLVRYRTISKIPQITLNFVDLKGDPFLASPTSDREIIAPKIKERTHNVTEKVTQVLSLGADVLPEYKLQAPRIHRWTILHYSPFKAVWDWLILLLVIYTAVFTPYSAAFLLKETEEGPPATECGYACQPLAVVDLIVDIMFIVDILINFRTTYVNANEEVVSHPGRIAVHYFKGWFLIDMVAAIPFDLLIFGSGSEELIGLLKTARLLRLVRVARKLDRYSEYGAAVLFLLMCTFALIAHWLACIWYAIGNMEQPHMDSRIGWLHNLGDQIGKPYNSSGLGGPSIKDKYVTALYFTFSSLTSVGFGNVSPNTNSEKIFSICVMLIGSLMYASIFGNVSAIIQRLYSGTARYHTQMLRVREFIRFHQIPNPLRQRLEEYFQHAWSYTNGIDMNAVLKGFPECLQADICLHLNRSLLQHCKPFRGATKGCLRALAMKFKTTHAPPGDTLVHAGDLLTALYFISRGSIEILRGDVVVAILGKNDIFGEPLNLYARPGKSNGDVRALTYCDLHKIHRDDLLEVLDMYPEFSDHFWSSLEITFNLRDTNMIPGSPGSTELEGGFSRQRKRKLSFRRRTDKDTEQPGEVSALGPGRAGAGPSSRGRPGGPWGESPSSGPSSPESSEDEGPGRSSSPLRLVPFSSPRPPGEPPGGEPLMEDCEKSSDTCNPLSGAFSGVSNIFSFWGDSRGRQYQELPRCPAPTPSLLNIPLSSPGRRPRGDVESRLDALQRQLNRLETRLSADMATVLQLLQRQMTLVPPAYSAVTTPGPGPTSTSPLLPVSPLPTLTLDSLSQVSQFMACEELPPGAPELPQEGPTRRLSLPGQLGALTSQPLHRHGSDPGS
row,Structure (SMILES),"hERG current change (%, negative = inhibition) at 10uM [%]"
1,N/C(=N\OC(=O)Cc1ccc(-c2ccccc2)cc1)c1cccnc1,-1.07
2,N#C/C(=N\Nc1cccc(F)c1)C(=O)C1CC1,13.8
3,CCN1CCN(c2ccc(S(=O)(=O)N3CCCCC3)cc2NC(=O)COc2ccc(Cl)cc2)CC1,-15.2
4,CN(Cc1cn(-c2ccccc2)nc1-c1ccc2c(c1)OCO2)Cc1nccn1C,-16.1
5,Cc1ccc(-c2[nH]c(=S)[nH]c(=O)c2C#N)cc1,17.4
6,CC1CCN(c2c(NCC3CCC(C(=O)Nc4ccccn4)CC3)c(=O)c2=O)CC1 (stereo not shown),16.2
7,CCOc1ccc(-c2cc(C(=O)NCCCN3CCOCC3)c3ccccc3n2)cc1,-13.3
8,CCOC(=O)C(O)(NC(=O)c1cccnc1)C(F)(F)F (stereo not shown),5
9,COc1ccc(OC)c(N(C(=O)c2ccco2)C(C(=O)NC2CCCC2)c2cc(OC)c(OC)c(OC)c2)c1 (stereo not shown),2.89
10,Cc1cc(C(C)(C)C)cc(S(=O)(=O)NCCO)c1C,4.13
11,CC(C)(C)c1ccc(OC(=O)c2ccc3snnc3c2)cc1,20.4
12,CSCC[C@H](NC(=O)[C@@H]1Cc2ccccc2CN1)C(=O)NC1CCCC1,-4.7
13,CC(C)(C)OC(=O)N1CCC(C(N)=O)CC1,4.69
14,O=C1C(=O)N(CCCN2CCOCC2)C(c2ccc(F)cc2)/C1=C(\O)c1ccc2c(c1)OCCO2 (stereo not shown),12.5
15,O=C(O)c1cccnc1SCc1cn2cc(Br)ccc2n1,18.4
16,C/C(CC(=O)Nc1cccc(C(F)(F)F)c1)=N\NC(=O)c1cnccn1,0.101
17,O=C(c1ccco1)N1CCN(S(=O)(=O)/C=C/c2ccccc2)CC1,-38.3
18,COc1cccc(-c2nc(NC3CCCC3)c3ccccc3n2)c1O,25.7
19,O=C(O)CCc1ccc(-c2ccc(Br)cc2)o1,16.1
20,O=C(O)c1cccc(NC(=S)NC(=O)c2ccc(-c3ccccc3)cc2)c1,24.7
21,Cc1sc2nc(CN3CCOCC3)nc(NS(=O)(=O)c3ccccc3)c2c1C,9.1
22,Cc1cc(C(=O)NNC(=S)Nc2ccccc2)nn1C,9.4

row,Structure (SMILES),"hERG current change (%, negative = inhibition) at 10uM [%]"
1,COc1ccc(NC(=S)NCCc2ccc(S(N)(=O)=O)cc2)c(OC)c1,9.47
2,CC(C(O)c1ccc(O)cc1)N1CCC(Cc2ccccc2)CC1.O=C(O)C(O)C(O)C(=O)O (stereo not shown),-71.4
3,CCOc1cccc(NC(=O)Cc2cccs2)c1,-0.0914
4,CN(C)c1ccc(/C=C(\NC(=O)c2ccccc2)C(=O)NCc2ccncc2)cc1,-12.8
5,Cc1nn(CCC(=O)N2CCN(S(=O)(=O)c3ccc(Cl)cc3)CC2)c(C)c1C,-3.75
6,COc1ccc(CN(C)CC(=O)NC(=O)NCc2ccccc2)cc1OC,14.8
7,COC(=O)c1ccc(OCC(O)CN(CC(C)C)CC(C)C)cc1 (stereo not shown),-4.37
8,CCOC(=O)N/N=C/c1cc(C)n(-c2ccccc2)c1C,8.33
9,CCOc1ccccc1C(=O)OC(C)C(=O)Nc1ccc(S(=O)(=O)N2CCCC2)cc1 (stereo not shown),-15.9
10,C/C(=N\N=C(N)N)c1ccc(Cl)c(Cl)c1.CC(=O)O,-13.3
11,NC(=O)/C(=N\O)c1ccccc1,-20.3
12,Cc1ccc(C)n1-c1ccc(N2CCOCC2)c(Br)c1,1.65
13,CC(C(=O)Nc1nccs1)N1C(=O)C2CC=CCC2C1=O (stereo not shown),1.3
14,O=C(c1cccn2c(=O)c3ccc(Cl)cc3nc12)N1CCC2(CC1)OCCO2,-11.2
15,Nc1ccc(S(=O)(=O)Nc2nccc(/C=C/c3ccccc3F)n2)cc1,23.4
16,Cc1cc(NC(=O)COC(=O)C2CC(=O)N(c3ccc(C)c(Cl)c3)C2)no1 (stereo not shown),5.29
17,COc1cnc(-c2ccccn2)nc1Oc1ccc(Cl)cc1,-0.157
18,CCCCNC(=O)COC(=O)c1ccc(NS(=O)(=O)c2ccc3c(c2)OCCO3)cc1,-4.15
19,O=C(Nc1ccc(Cl)c(Cl)c1)Nc1ccccc1NS(=O)(=O)c1cccs1,23.8
20,C1CN(CC23CC4CC(CC(C4)C2)C3)CCO1.Cl,18.2
21,Cc1cccc(/C(N)=N/OC(=O)c2ccncc2)c1,4.17
22,Cc1ccccc1OCC(O)CN1CCN(CC(O)COc2ccccc2C)CC1 (stereo not shown),-81.6

row,Structure (SMILES),"hERG current change (%, negative = inhibition) at 10uM [%]"
1,COCCN1C(=O)c2oc3ccccc3c(=O)c2C1c1ccc(OC)c(OC)c1 (stereo not shown),-0.211
2,CC(C)(C)OC(=O)NC1CCN(S(=O)(=O)c2ccc3c(c2)OCCO3)CC1,2.78
3,N=C1c2ccccc2CN1c1ccc(S(=O)(=O)N2CCCCC2)cc1,-62.5
4,Cc1cc(C)cc(NC(=O)CSc2ccc(-c3cccs3)nn2)c1,-52.2
5,CCOC(=O)CSc1nnc(-c2ccccc2)c(=O)[nH]1,-15.8
6,Nn1c(SCc2csc(-c3ccccc3)n2)nnc1-c1cccs1,16.3
7,COc1ccc(CCN=C(N)NS(=O)(=O)c2cccs2)cc1,6.94
8,COc1cc(C(=O)N(Cc2cc3cc(C)ccc3[nH]c2=O)CC2CCCO2)cc(OC)c1OC (stereo not shown),5.2
9,O=C(CSc1n[nH]c(-c2cccs2)n1)N1CCN(S(=O)(=O)c2ccc3ccccc3c2)CC1,-4.67
10,Cn1cc(Br)c(-c2cccc(N3C(=O)CCCC3=O)c2)n1,9
11,CC1Cc2ccccc2N1C(=O)c1ccc2c(c1)OCO2 (stereo not shown),5.67
12,CN1CCN(C(=O)c2sc(=S)n(-c3ccccc3)c2N)CC1,-10.2
13,Cc1sc2nc(CN3CCCC3)nc(N3CCN(C(=O)c4ccco4)CC3)c2c1C,-68.6
14,COc1ccc(C2N(C(=O)CN3CCOCC3)CCN2S(=O)(=O)c2ccccc2)cc1 (stereo not shown),-9.02
15,CC(=O)Nc1cccc(OCC(=O)NS(=O)(=O)c2ccc(C)cc2)c1,1.18
16,COc1ccc(/C=C/C(=O)OCC(=O)NCCC2=CCCCC2)cc1,18
17,Cc1ccc2c(c1)c1cccc3c1n2CCN3CCC(N)=O,12.1
18,O=C(N/N=C/c1cc2cc3c(cc2nc1Cl)OCO3)c1ccncc1,16.6
19,CCC/C(=N\NC(=O)c1ccco1)c1ccc(Cl)s1,2.73
20,CN(C)CCOCCOc1ccc(Cl)cc1C(C)(C)C.O=C(O)C(=O)O,-37.3
21,C=Cn1ccnc1P(=S)(c1nccn1C=C)c1nccn1C=C,18.7
22,CCCCN(C)C(=O)c1nc2ccccn2c1CNCCCn1ncc2ccccc21,-55

row,Structure (SMILES),"hERG current change (%, negative = inhibition) at 10uM [%]"
1,COc1cccc(CN(C)C(=O)CCNC(=O)c2ccco2)c1,1.01
2,O=c1nc(/C=C/c2ccc(Cl)cc2Cl)cc(C(F)(F)F)[nH]1,5.22
3,O=S(=O)(Nc1ccccc1Cl)c1cc(NC(=S)NCCN2CCOCC2)ccc1Cl,14
4,C=CCn1c(CSCc2ccccc2)nnc1SCC(=O)N1CCN(c2ccccc2)CC1,-23.6
5,CC1SC2(NC1=O)C1CC3CC(C1)CC2C3 (stereo not shown),3.83
6,Cl.O=C(c1ccc(Br)cc1)C(CN1CCOCC1)c1ccccc1 (stereo not shown),6.72
7,CC(C)(C)NC(=O)NC(=O)COC(=O)c1cc(=O)[nH]c2ccccc12,0.0254
8,Cc1occc(=O)c1OCc1c(Cl)cccc1Cl,10.7
9,C[C@@]12C(=O)N(c3cccc(F)c3)C(=O)N1[C@H](c1ccc(F)cc1)[C@@H]1C(=O)N(C3CCCCC3)C(=O)[C@@H]12,-0.893
10,Cc1cc(C)n(-c2cccc(Cl)c2C#N)n1,7.39
11,COc1ccccc1NC(=O)CC(NCCN(C)C)C(=O)O (stereo not shown),30.1
12,CCOC(=O)C1=C(O)C(=O)N(c2ccc(S(N)(=O)=O)cc2)C1c1ccc(OC)cc1 (stereo not shown),-2.06
13,COc1ccc(C2N(Cc3ccccc3)CCN2Cc2ccccc2)cc1[N+](=O)[O-],-29.9
14,O=S(=O)([N-]c1nc2ccccc2nc1-n1cc[n+](Cc2ccccc2)c1)c1ccc(Cl)cc1,13.2
15,Cc1cc(C)nc(NC(=S)Nc2cccc(F)c2)c1,7.1
16,COc1ccccc1Cn1c(=O)c2ccccc2n2c(SCC(=O)N3CCCCC3)nnc12,15.2
17,Cc1nc2sc(C(c3ccco3)N3CCN(c4ccccc4)CC3)c(O)n2n1 (stereo not shown),-13.2
18,Cc1nn(CC(=O)Nc2ccc3c(c2)CCC3)c(C)c1[N+](=O)[O-],19.1
19,COCCn1c(C)cc(C(=O)CN2C(=O)NC3(CCCCCC3)C2=O)c1C,-27.8
20,CCOc1ccc(C(CC(=O)O)n2cnnn2)cc1OC (stereo not shown),23.9
21,C#CCN(CC=C)C(=O)c1cccc(OC2CCN(S(C)(=O)=O)CC2)c1,5.12
22,O=C1COc2ccc(S(=O)(=O)Nc3ccc4c(c3)OCO4)cc2N1,19.4
